# Hit rate of the full screen: of about 45,000 compounds, about 200 (0.44%) were called active. Not shown: some 7% with an inconclusive outcome. The call rests on the fitted dose curve; in most records, active means well fitted activation curve with a large enough effect; inconclusive means small, poorly fitted or top-dose-only effect; inactive means no such curve, though single readings can be large or run the other way. The list shows a part of the results.
# Experiment: qHTS of TDP-43 Inhibitors: NCGC Sytravon Library Screen; further: 0% is about no effect; nearly all actives have a fitted effect of over 55% in size
# Settings: yeast TDP-43 toxicity rescue, BacTiter-Glo growth, 24 h; series mostly up to 46.1 µM; growth rescue (activation): at the top concentration
# Outline: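 TDP-43-expressing yeast, pregrown in raffinose, seeded at OD600 0.02 in galactose medium with compound for 24 hr at 30 deg C. Growth read by BacTiter-Glo luminescence, so rescue of toxicity appears as activation.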
row,Compound,growth rescue (activation)
1,COc1cc2c(cc1NC(=O)CN1CCN(S(=O)(=O)c3ccc(C)cc3)CC1)oc1ccccc12,inactive: 19.2%
2,CSc1ncc(C(=O)Nc2ccc(Cl)cc2)c(C)n1,inactive: 13.2%
3,Cc1ccc2nsnc2c1NC(=O)Cc1ccc(Cl)cc1,inactive: 13.6%
4,Cc1ccc(-c2nc3c(c(=O)c4ccccc4n3C)c(=O)n2-c2ccc(F)cc2)cc1,inactive: -9.21%
5,Cc1ccc(/C=N/Nc2nc(N3CCOCC3)nc(N3CCOCC3)n2)o1,inactive: 0.0022%
6,COc1ccccc1NC(=O)CCS(=O)(=O)c1ccccc1,inactive: -0.687%
7,Cc1csc(N(C(=O)c2cccc(S(=O)(=O)N3CCCC3)c2)c2ccccc2)n1,inactive: -0.354%
8,O=S(=O)(NCC1COc2ccccc2O1)c1ccc2ccccc2c1 (stereo not given),inactive: 13.6%
9,CCCCCn1c(=S)[nH]c2ncccc2c1=O,inactive: 24.2%
10,Nn1c(SCC(=O)NC2CCCCCC2)nnc1C(F)(F)F,inactive: 10.9%
11,Cn1nc([N+](=O)[O-])nc1Sc1nnnn1-c1ccc(C(=O)O)cc1,inactive: -6.8%
12,CC(=O)Oc1ccc(-c2csc(Nc3ccc(S(N)(=O)=O)cc3)n2)cc1,inactive: 10.8%
13,Cn1c(SCC(=O)N2CCCC2=O)nc2ccccc2c1=O,inactive: 17.4%
14,CC(=O)N1CCN(C(=S)NC(=O)c2ccc(F)cc2)CC1,inactive: -24.6%
15,Cc1cnc(C(=O)OCC(=O)N(Cc2ccccc2)C(C)C)cn1,inactive: 19%
16,O=C(c1ccc(Cn2c(=S)[nH]c3ccccc3c2=O)cc1)N1CCN(c2ccccn2)CC1,inactive: -8.07%
17,Cc1ccc(NC(=O)COC(=O)c2ccc(NC(=O)CC#N)cc2)cc1S(=O)(=O)N1CCOCC1,inactive: -17.4%
18,COC(=O)CCSc1cc(NCCOC(C)=O)c([N+](=O)[O-])c2nonc12,inactive: 7.88%
19,O=C(CCNS(=O)(=O)c1ccc(Cl)cc1)N1CCN(c2ccccn2)CC1,inactive: 1.77%
20,CC(C)C(=O)N1CCC1(C)C(=O)Nc1nc2ccccc2[nH]1 (stereo not given),inactive: 7.66%
21,CCOc1ccccc1NC(=O)NCc1ccc(F)cc1,inactive: -0.846%
22,CCNC(=O)C1(C)CCN(Cc2ccc(OC(F)(F)F)cc2)C1 (stereo not given),inactive: 6.04%
23,C/C(=N\NC(=O)c1nnn(-c2nonc2N)c1C)c1ccc(-c2ccccc2)cc1,inactive: 1.42%
24,COc1ccc(C(C(=O)NC(C)(C)C)N(C(=O)CCC(=O)Nc2cc(C)on2)c2cccc(F)c2)cc1 (stereo not given),inactive: 4.62%
25,COc1ccc(CC(=O)NNc2ncnc3c2cnn3C)cc1,inactive: 7%
26,CC1(C(=O)Nc2ccc3c(c2)OCO3)CCN1C(=O)CCc1cccs1 (stereo not given),inactive: 22.9%
27,CCn1c(COc2ccccc2)nnc1SCC(=O)NCc1ccco1,inactive: -28.7%
28,Cc1ccc(-c2cn(-c3ccccc3)c(=S)[nH]2)cc1C,inactive: 11.6%
29,N#Cc1cccc(NC(=O)CN2CCCCCC2)c1,inactive: 11.8%
30,O=C(COC(=O)c1ccccc1)Nc1cccc(S(=O)(=O)NC2=NCCCCC2)c1,inactive: 1.05%

# From PubChem BioAssay AID1347073 (National Center for Advancing Translational Sciences (NCATS), 2019)
